The results in this text go back to CN117138036A (NANJING RONGJIEKANG BIOTECHNOLOGY CO LTD, dated 2023).

One assay deals with IL-5 (human, UniProt P05113 20-134). Put plainly: cell-based or functional assay.
The target of the next assay is IL-4Rα (UniProt P24394 26-232, limits assumed). Put plainly: cell-based or functional assay.

IL-5, sequence (P05113 20-134 limits assumed): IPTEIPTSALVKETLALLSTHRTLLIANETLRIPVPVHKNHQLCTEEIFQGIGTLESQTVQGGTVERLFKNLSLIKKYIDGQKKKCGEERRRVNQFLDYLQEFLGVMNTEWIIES

B1: 4E9V10-2B3V2-1 (bispecific antibody, human IgG4)
chain: QVQLVESGGGLVQPGGSLRLSCAASGDFYCMAWFRQAPGKEREAVAAIRSGGRSTYYADSVKGRFTISRDNSKNTLYLQMNSLKAEDTAVYYCAVGVDGNCRNYWGQGTLVTVSS[left out - human IgG4 Fc]ESKYGPPCPSCPQVQLVESGGGSVQAGGSLRLSCAASGNTFSFSTYCMGWFRQSPGKEREGSLATIYDASTAYAGSVKGRFTISRDNSKNILYLQMNNLRAEDTAVYYCAAARYCMFWSHPSYWGQGTQVTVSS
B1: the “EC50, 中和IL-5诱导的TF-1细胞增殖” value in the assay with IL-5 stood at 175 pM. Further, the “EC50, 中和IL-13诱导的TF-1细胞增殖” value with IL-4Rα is 215 pM.
